Source: PubChem BioAssay AID493208 (National Center for Advancing Translational Sciences (NCATS), 2011)
Among all 44,000 compounds or so, about 340 (0.77%) were called active. Roughly 5% stayed inconclusive and do not appear here. The call rests on the fitted dose curve; in most records, active means well fitted inhibition curve with a large enough effect; inconclusive means small, poorly fitted or top-dose-only effect; inactive means flat fitted curve, though single readings scatter. The list shows a part of the results.

experiment: Acumen qHTS Assay for Inhibitors of the mTORC1 Signaling Pathway in MEF (Tsc2-/-, p53-/-) Cells: Sytravon; conditions: phospho-rpS6 immunofluorescence/PI, 24 h; series mostly up to 38.3 µM; activity change, negative = inhibition: at the top concentration;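 further: plate controls were DMSO for no effect and rapamycin for full effect; nearly all actives have a fitted effect of over 50% in size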
How it was run: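 Cell-based qHTS: Tsc2-/- p53-/- MEF, 24 h cpd, 37 °C; fix/perm, anti-phospho-S6 Alexa-488 + PI; Acumen 488 nm scan; pS6/PI ratio, % positive cells; rapamycin 7.5 nM = inhibition ref; PI count = viability.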

Activity change, negative = inhibition, inactive:
O=C(CSc1oc(-c2ccco2)nc1S(=O)(=O)c1ccc(Cl)cc1)c1ccc(Cl)cc1 -2.32%
Cc1ccc2oc(=O)c3cc(C(=O)N(Cc4ccccc4)C(C)C)sc3c2c1 -2.32%
COc1ccc(CNC(=O)CC2N=C3c4ccccc4N=C(SCC(=O)Nc4ccc(N(C)C)cc4)N3C2=O)cc1 (configuration not stated) 3.98%
Cc1ccc(CN2c3ccccc3S(=O)(=O)c3ccccc32)cc1 13.5%
Cc1ccc(NC(=O)Cn2c(-c3ccc4c(c3)OCO4)cn(-c3ccccc3)c2=O)cc1 -6.57%
Cc1ccc2c(c1)c1c(c(=O)n(Cc3ccccc3)c(=O)n1CC(=O)Nc1ccccc1C)n2C 0.262%
COc1ccc(-c2c3c(=O)n(C)c(=O)n(C)c3c3c(-c4ccc(C)cc4)nc4ccccc4n23)cc1 6.25%
CCCCCNC(=O)C(=O)NCC(c1ccc2c(c1)OCO2)N1CCOCC1 (configuration not stated) -3.1%
CCC(C(=O)Nc1cccc(C#N)c1)n1c(=O)c(-c2ccccc2NC(C)=O)nc2ccccc21 (configuration not stated) -1.28%
Cc1ccc(CSc2nc(=O)c3c(n2C)NC(=O)CC3c2ccc(OC(C)C)cc2)cc1 (configuration not stated) -1.04%
CCN1CCC(N(Cc2cccc(OC)c2)C(=O)Nc2ccc(C)cc2Cl)CC1 -0.887%
Cc1ccc(S(=O)(=O)Nc2cc3c(cc2N2CCOCC2)n(C)c(=O)n3C)c(C)c1 1.52%
COc1cc(NC(=O)c2cnn(-c3cccc(F)c3)c2C2CCNCC2)cc(OC)c1OC 4.2%
CCc1nnc(NC(=O)CSCc2cc(=O)c3ccc(C)cc3[nH]2)s1 -16%
Cc1cc(O)c(C(c2ccccc2Cl)N2CCN(c3ccccc3)CC2)c(=O)n1Cc1ccco1 (configuration not stated) 4.68%
Cc1ccc(C)c(NC(=O)CCCn2nc(C)c3sc4ccccc4c3c2=O)c1 0.962%
COc1cc(CN(C(=O)COc2ccc(C)c(C)c2)c2ccccn2)cc(OC)c1OC -14.8%
COc1ccc(NC(=O)CN(Cc2ccccc2)S(=O)(=O)c2ccc3nc(C)sc3c2)cc1 -6.88%
CCCN(CCC)CCNC(=O)c1cc2c(-c3ccccc3F)nn(C)c2s1 -14.4%
CCN(CC)CCNC(=O)Cn1ncc2c([nH]c3ccccc32)c1=O -10.6%
CCCCN(CC)CCCNC(=O)c1cc2c(-c3ccc(OC)c(OC)c3)nn(C)c2s1 -16.2%
O=C(NCc1ccc(F)cc1)c1ccc(NC(=O)N2CC3CCCN3c3ccccc32)cc1 (configuration not stated) -4.52%
COCCNC(=O)C1CCCN(S(=O)(=O)c2ccc3c(ccn3C)c2)C1 (configuration not stated) 1.08%
CCOc1ccc(-c2cnc(NCc3ccc(OC)cc3OC)n2C)cc1 -0.817%
O=C1c2oc3ccc(F)cc3c(=O)c2C(c2cccc([N+](=O)[O-])c2)N1CCCN1CCOCC1 (configuration not stated) 3.23%
Cc1ccc(NC(=O)c2cccn2-c2nnc(N3CCCCC3)s2)cc1Cl -1.41%
Cn1nc(C(=O)N2CCN(c3ccccc3F)CC2)c2c1-c1ccccc1SC2 -1.28%
Cc1ccc2nc(N(Cc3cccnc3)C(=O)C3COc4ccccc4O3)sc2c1 (configuration not stated) -4.91%
Cc1ccc(CSc2cn(CC(=O)N3CCCCC3)c3ccccc23)cc1 -5.53%
CCc1ccc(CN(C(=O)c2cc3ccccc3oc2=O)C2CCS(=O)(=O)C2)cc1 (configuration not stated) -1.72%
CC(=O)c1ccc(NC(=O)c2ncn(-c3ccccc3)n2)cc1 7.22%
COc1ccc(Cl)cc1NC(=O)CCC(=O)c1ccc(C)cc1 3.08%
COc1ccc(CNC(=O)COCc2cc(-c3cccs3)on2)cc1OC -0.204%
CCCCNC(=O)CCCn1c(=O)c2ccccc2n(Cc2ccccc2C)c1=O -16.2%
CCc1c(C)sc2c1CCN(Cc1ccc(F)cc1)C2c1ccccc1 (configuration not stated) 0%
CCn1cc(C(=O)NCCc2ccccc2)c(=O)c2cc(S(=O)(=O)N(C)C3CCCCC3)ccc21 -0.432%
COc1ccc(-c2noc(-c3ccc(NCc4ccccc4OC)c([N+](=O)[O-])c3)n2)cc1 -16.8%
Cc1ccc(C2=Nc3ccccc3N(CC(=O)Nc3cccc(F)c3)C(=O)C2)cc1C -12%
CC(=O)c1[nH]c(C)c(C(=O)NCCc2ccc(C)cc2)c1C -14.8%
CC(=O)Nc1cccc(C(=O)NCc2ccc3c(c2)CCN3C(C)=O)c1 0.958%
CN(C)CCCNc1oc(/C=C/c2ccc(F)cc2)nc1C#N -5.97%
Cc1ccc(NC(=O)CCCn2c(=O)c3cccn3c3cccnc32)c(Cl)c1 -0.283%
O=c1oc2c3c(ccc2c2ccccc12)OCN(Cc1cccc(Cl)c1)C3 -15.9%
CCOc1ccccc1N(C)C(=O)C1CCCN(c2ncnc3onc(-c4ccc(F)cc4)c23)C1 (configuration not stated) -8.4%
Cc1c(CCNC(=O)Cc2ccccc2)sc2nc(-c3ccc(F)cc3)nn12 -4.04%
Cc1cc(C)c(NC(=O)CSc2nccn2Cc2ccco2)c(C)c1 -10.3%
O=C(CN1CCN(Cc2ccc(Cl)cc2)C1=O)NCc1ccc(F)cc1 -8.73%
CCOc1ccc(CNC(=O)c2cc3c(=O)n(C)c4ccccc4c3s2)cc1 -1.32%
O=C(c1ccc2c(c1)OCCO2)N(Cc1cccnc1)c1nc2ccc(F)cc2s1 -0.464%
Cc1ccc(NC(=O)Cn2c(=O)n(Cc3ccco3)c(=O)c3ccccc32)cc1 4.41%
CCN(CC)CCCNC(=O)c1cc(-c2ccc(OC)c(OC)c2)on1 -2.7%
Cc1ccc(NC(=O)C2CCCN2S(=O)(=O)c2cccc3cccnc23)cc1 (configuration not stated) -2.65%
Cc1cc(C)n2nc(CNS(=O)(=O)c3ccc(Cl)cc3)nc2n1 -1.96%
CC1CN(C(=O)N2CCC(C(=O)NC3CCCCCC3)CC2)c2cc(Cl)ccc2O1 (configuration not stated) -4.75%
O=C(Cn1cc(SCc2cccc(Cl)c2)c2ccccc21)N1CCOCC1 -9.06%
COc1cc(C(=O)NC2CC(=O)N(c3cccc(F)c3)C2)cc(OC)c1OC (configuration not stated) -2.02%
COc1ccc(NC(=O)c2ccco2)cc1NC(=O)COc1cc(C)cc(C)c1 -6.54%
CCC(=O)N1CCc2cc(Br)cc(S(=O)(=O)N3CCN(c4ccccc4)CC3)c21 -3.68%
CCc1nnc2c(NCc3ccc(F)cc3)nc3ccccc3n12 0.999%
COc1ccc(CNC(=O)C2CCCN(S(=O)(=O)c3ccc4c(c3)CCCN4C(C)=O)C2)cc1 (configuration not stated) 2.31%
COc1ccccc1N1CCN(S(=O)(=O)c2ccc(F)c(C(=O)Nc3ccc(C)c(F)c3)c2)CC1 4.48%
CCOc1ccc2nc(N3CCCC(C(=O)Nc4ccc(Br)c(C)c4)C3)sc2c1 (configuration not stated) 0.727%
COc1ccc2c(c1)NC(c1ccc(OCC(C)C)cc1)=NC(c1ccncc1)=N2 -4.73%
COc1ccc(CCNC(=O)c2cc(Sc3cccc(Cl)c3)nc3ccccc23)cc1OC 4.99%
COc1ccc2c(c1)CC(C(=O)N1CCC(C(N)=O)CC1)CO2 (configuration not stated) -1.54%
COc1ccccc1N1CCN(C(=O)c2oc3ccccc3c2NC(=O)C(C)Oc2ccccc2)CC1 (configuration not stated) 6.05%
Cc1ccc(C(C)C)c(OCCn2cc(C(=O)c3ccco3)c3ccccc32)c1 -4.88%
CCOc1ccc(-c2n[nH]c3c2C(c2ccccc2OC)N(c2ccc(Br)cc2)C3=O)cc1 (configuration not stated) 2.03%
COc1cc2c(=O)n(Cc3ccccc3)c(=O)n(CC(=O)Nc3cc(C(F)(F)F)ccc3Cl)c2cc1OC 0%
O=C(Cn1cccc1C(=O)c1ccccc1)NCc1ccc(F)cc1 -2.12%
CN1C(C(=O)Nc2ccc(OC(F)(F)F)cc2)=CC(c2ccc3c(c2)OCO3)=NS1(=O)=O 0.958%
COC(=O)c1cc2oc(C)cc2n1Cc1c(C)cc(C)cc1C -8.16%
CCN(CC)c1ccc(NS(=O)(=O)c2ccc3c(c2)CCCN3C(C)=O)c(C)c1 -6.18%
CCc1ccc(N2CCn3c2nc2c3c(=O)n(Cc3cccc(C)c3)c(=O)n2C)cc1 6.89%
CCOC(=O)c1c(C)oc2ncnc(NCCc3ccccc3)c12 0.688%
COc1ccc(C2c3c(n(C)c4ccccc34)C(=O)N2CC(=O)Nc2ccc(Cl)cc2)cc1 (configuration not stated) -10.9%
COc1cc2nc(SCC(=O)Nc3ccc(F)cc3)n3nc(CCn4c(C)nc5ccccc54)nc3c2cc1OC -15.8%
Cc1ccc(OC(=O)c2snnc2C)cc1C -1.15%
CCCN1CCN(CCNC(=O)Nc2cc(OC)cc(OC)c2)CC1 2.47%
Cc1ccc(NC(=O)C(=O)NCC(c2ccc3c(c2)OCO3)N2CCOCC2)c(C)c1 (configuration not stated) -2.16%
O=C(CSc1ncc2c(n1)-c1ccccc1N(Cc1ccc(F)cc1)S2(=O)=O)c1ccc(Br)cc1 -2.07%
CC(C)c1ccc(OCc2cc(=O)n3c4c(sc3n2)CCCC4)cc1 3.32%
Cc1cccc(NC(=O)CSc2nc3ccc(NC(=O)c4cccs4)cc3s2)c1 -13.9%
COc1ccc(OCC(=O)Nc2cc(-c3cccc(Cl)c3)nn2-c2ccccc2)cc1 13.9%
CCc1ccc(Nc2cc(C)nc3nc(Cc4ccc(Cl)cc4)nn23)cc1 -19.2%
CCOC(=O)c1ccc(CSc2nnc3cc(C)c4ccccc4n23)cc1 -9.09%
COc1ccccc1NC(=O)CN(c1ccc(C(C)C)cc1)S(=O)(=O)c1c(C)noc1C 2.01%
O=C(NC1CCCCC1)c1ccc2c(c1)sc1nc(-c3ccccc3)cn12 1.42%
N#Cc1ccc(C(=O)N2CCN(c3nc4ccc(F)cc4s3)CC2)cc1 0.327%
CCN(CC)CCN(C(=O)c1ccco1)c1nc2c(C)cccc2s1 -11.1%
COc1cc2c(cc1OC)C(c1ccc(Cl)cc1)N(c1ccc(C)c(F)c1)C(=O)C2 (configuration not stated) -29.5%
COc1ccc(-c2oc3ncn4nc(-c5ccc(Cl)cc5)nc4c3c2-c2ccc(OC)cc2)cc1 -2.93%
Cc1ccc2c(c1)c(=O)c(C(=O)c1ccccc1)cn2Cc1ccccc1F -0.897%
COc1ccc(NC(=O)CC2C(=O)N(c3ccccc3)C(=O)N2CCC2=CCCCC2)cc1 (configuration not stated) 0.0768%
CCOc1cccc(C(=O)Nc2nnc(S(=O)(=O)N(C)c3ccc(C)cc3)s2)c1 6.24%
COc1cc(NC(=O)C2CCN(S(=O)(=O)c3c(C)noc3/C=C/c3cccs3)CC2)cc(OC)c1 0.335%
COc1ccc(S(=O)(=O)N(CC(=O)Nc2ccc(OC)cc2OC)c2ccc(Cl)cc2)cc1 -10.4%
